Where a name gives a salt, the structure may show the parent alone. This is one part of the list. The data scatter; read single values as rough.
tested on: MKN45; experiment: ALDHbr (CSC) cell proportion score relative to DMSO vehicle (ratio to DMSO); breast (SUM159) / gastric (MKN45) / pancreatic (PANC1) / colon cancer lines; ALDHbr cells have high ALDH activity and are rich in cancer stem cells (CSC); higher = more CSC (ALDHbr) cells remaining; settings: 10 µM; 72 h
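Also: High-content imaging of ALDEFLUOR-stained cells with Hoechst-labelled nuclei in 384-well plates, triplicate wells, scored as Z-score against 0.1% DMSO vehicle, negative meaning fewer ALDHbr cells.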

Row | SMILES | ALDHbr
1 | O=C(CCCN1CCC(n2c(=O)[nH]c3ccccc32)CC1)c1ccc(F)cc1 [Benperidol] | 1.17
2 | CC(C)(C)NCC(O)c1ccccc1Cl (stereo not given) [Tulobuterol] | 0.939
3 | CN[C@@H]1[C@@H](O)[C@@H](O[C@@H]2[C@@H](O)[C@H](O[C@H]3O[C@H](CN)CC[C@H]3N)[C@@H](N)C[C@H]2N)OC[C@]1(C)O.CN[C@@H]1[C@@H](O)[C@@H](O[C@@H]2[C@@H](O)[C@H](O[C@H]3O[C@H]([C@@H](C)N)CC[C@H]3N)[C@@H](N)C[C@H]2N)OC[C@]1(C)O.CN[C@@H]1[C@@H](O)[C@@H](O[C@@H]2[C@@H](O)[C@H](O[C@H]3O[C@H]([C@@H](C)NC)CC[C@H]3N)[C@@H](N)C[C@H]2N)OC[C@]1(C)O [Gentamicine sulfate] | 1.18
4 | CC[C@@H](C(N)=O)N1CCCC1=O [Levetiracetam] | 1.15
5 | C=C(C)[C@@H]1[C@H]2OC(=O)[C@@H]1[C@]1(O)C[C@H]3O[C@]34C(=O)O[C@H]2[C@]14C [Picrotoxinin] | 0.966
6 | Oc1cc(Cl)ccc1Oc1ccc(Cl)cc1Cl [Triclosan] | 1.14
7 | CC(Cc1ccc(O)cc1)NCC(O)c1cc(O)cc(O)c1 (stereo not given) [Fenoterol hydrobromide] | 1.01
8 | C=CC[C@]1(O)CC[C@H]2[C@@H]3CCC4=CC(=O)CCC4=C3C=C[C@@]21C [Altrenogest] | 0.778
9 | COc1ccc(OC)c(C(O)C(C)N)c1 (stereo not given) [Methoxamine hydrochloride] | 1.01
10 | Cc1cc(C(C#N)c2ccc(Cl)cc2)c(Cl)cc1NC(=O)c1cc(I)cc(I)c1O (stereo not given) [Closantel] | 0.981
